Laboratory results: US11542275B2, “Substituted imidazolidin-2-one derivatives as PRMT5 inhibitors” (Aurigene Discovery Technologies Limited, priority 2018, dated 2023)

Target: PRMT5/MEP50 Complex (Homo sapiens (Human), UniProt O14744)
Assay: PRMT5 inhibition based on TR-FRET assay
Assay type: biochemical
Conditions: 32 nM PRMT5:MEP50 complex, 50 nM Histone-H4 peptide, 1 μM SAM, 90 minutes at room temperature
Description: Protein arginine methyltransferase 5 (PRMT5) is a type II arginine methyltransferase that catalyze mono- and symmetric demethylation on arginine residues of histone or non-histone proteins in presence of S-adenosylmethionine (AdoMet or SAM) a cofactor responsible for donating the methyl group. PRMT5 is reported to be overexpressed in several human cancers. To identify compounds that inhibit the PRMT5 and decrease its activity, a TR-FRET based assay has been established. Time-resolved fluorescence resonance energy transfer (TR-FRET) HTS assays are homogeneous proximity assays where the interaction of two dye-labeled binding partners is detected by the energy transfer between a donor and an acceptor dye, and the subsequent light emission by the acceptor dye. PRMT5 catalyzes Histone H4 peptide which is biotin tagged to the Lysine amino acid at carboxyl end, in presence of S-adenosyl-1-methionine (SAM) to methylate the peptide. The antibody specific to mono methylated H4 peptide (H4R3) with Ig conjugate binds to the methylated peptide, indirectly binding to the Europium lanthanide. […]
The compound dilutions were prepared as 7.5% DMSO stock solutions in assay buffer. […] The plates were then read on Victor-3 with Excitation at 340 nm and Emissions collected at 615 and 665 nm in TR-FRET protocol. […]

| SMILES | IC50 [nM] |
| --- | --- |
| CO[C@H](CN1CCc2ccccc2C1)CN1CCN(Cc2ccc(C3CCOCC3)cn2)C1=O [Compound 104, (R)-1-(3-(3,4-dihydroisoquinolin-2(1H)-yl)-2-methoxypropyl)-3-((5-(tetrahydro-2H-pyran-4-yl)pyridin-2-yl)methyl)imidazolidin-2-one] | 444 |
| O=C1N(Cc2ccc(N3C4CCC3COC4)cn2)CCN1C[C@H](O)CN1CCc2ccccc2C1 [Compound 18, 1-((5-(3-oxa-8-azabicyclo[3.2.1]octan-8-yl)pyridin-2-yl)methyl)-3-((R)-3-(3,4-dihydroisoquinolin-2(1H)-yl)-2-hydroxypropyl)imidazolidin-2-one] | 25 |
